In article PMC4477613:
Positions count from the first letter of the chain named. Names may count otherwise. No constants are given. Whether binding was seen depends on the method and setting. Binding seen in cells or lysates may run through a third protein. Some entries that bind do so weakly or less than the wild type.

By UniProt entry, the sequences of proteins in these tests, tags left out.
UniProt P08238: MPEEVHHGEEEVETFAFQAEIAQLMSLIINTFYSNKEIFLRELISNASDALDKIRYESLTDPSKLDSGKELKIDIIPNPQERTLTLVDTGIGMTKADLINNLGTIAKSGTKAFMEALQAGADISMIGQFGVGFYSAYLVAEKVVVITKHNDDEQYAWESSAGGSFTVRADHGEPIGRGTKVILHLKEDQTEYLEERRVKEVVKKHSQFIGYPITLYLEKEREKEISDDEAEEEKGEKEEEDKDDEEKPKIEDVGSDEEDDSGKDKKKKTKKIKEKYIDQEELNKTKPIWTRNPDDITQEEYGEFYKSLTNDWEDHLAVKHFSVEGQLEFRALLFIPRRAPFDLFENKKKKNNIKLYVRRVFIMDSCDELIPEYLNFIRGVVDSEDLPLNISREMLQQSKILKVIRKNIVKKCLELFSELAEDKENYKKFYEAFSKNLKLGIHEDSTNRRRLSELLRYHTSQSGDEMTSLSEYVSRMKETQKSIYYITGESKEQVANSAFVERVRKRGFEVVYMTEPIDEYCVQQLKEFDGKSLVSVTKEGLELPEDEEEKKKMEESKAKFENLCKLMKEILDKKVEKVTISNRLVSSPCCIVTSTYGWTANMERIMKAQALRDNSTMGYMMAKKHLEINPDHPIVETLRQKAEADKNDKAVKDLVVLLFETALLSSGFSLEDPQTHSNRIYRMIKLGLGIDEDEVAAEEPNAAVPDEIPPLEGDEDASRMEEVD
UniProt P0DMV8: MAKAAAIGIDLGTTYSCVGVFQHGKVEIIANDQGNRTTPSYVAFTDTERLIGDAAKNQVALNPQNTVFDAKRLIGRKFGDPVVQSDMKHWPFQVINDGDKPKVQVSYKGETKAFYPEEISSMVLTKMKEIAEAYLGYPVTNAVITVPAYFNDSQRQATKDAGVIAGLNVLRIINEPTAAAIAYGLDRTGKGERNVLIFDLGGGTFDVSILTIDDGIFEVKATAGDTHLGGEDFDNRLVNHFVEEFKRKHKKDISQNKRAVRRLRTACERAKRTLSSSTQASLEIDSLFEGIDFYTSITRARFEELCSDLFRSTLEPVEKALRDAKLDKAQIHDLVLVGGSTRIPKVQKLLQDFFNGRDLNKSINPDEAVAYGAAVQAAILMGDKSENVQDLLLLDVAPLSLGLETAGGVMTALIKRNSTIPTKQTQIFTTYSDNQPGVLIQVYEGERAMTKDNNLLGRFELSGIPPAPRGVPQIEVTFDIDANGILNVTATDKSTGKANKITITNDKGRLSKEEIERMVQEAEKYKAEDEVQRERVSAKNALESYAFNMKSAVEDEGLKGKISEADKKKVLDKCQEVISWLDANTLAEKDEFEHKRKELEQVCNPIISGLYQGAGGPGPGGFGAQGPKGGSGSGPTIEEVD

T1: Gasdermin A3 Rim3-type mutant (A348T), full length (mouse) (UniProt Q5Y4Y6)
T1 sequence: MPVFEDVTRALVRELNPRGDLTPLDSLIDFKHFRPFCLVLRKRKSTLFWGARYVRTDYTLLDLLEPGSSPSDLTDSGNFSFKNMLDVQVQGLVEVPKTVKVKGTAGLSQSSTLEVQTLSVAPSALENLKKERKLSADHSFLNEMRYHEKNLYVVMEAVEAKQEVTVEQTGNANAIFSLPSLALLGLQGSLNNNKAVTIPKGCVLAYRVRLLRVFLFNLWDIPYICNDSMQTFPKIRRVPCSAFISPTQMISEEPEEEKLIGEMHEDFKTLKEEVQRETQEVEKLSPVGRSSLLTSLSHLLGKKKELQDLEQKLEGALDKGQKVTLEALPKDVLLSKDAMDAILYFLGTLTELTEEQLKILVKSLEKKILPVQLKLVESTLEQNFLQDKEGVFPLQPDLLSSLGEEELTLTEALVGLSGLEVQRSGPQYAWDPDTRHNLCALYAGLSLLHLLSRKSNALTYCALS

T2: N-terminal portion of Gsdma3 (A.A. 1-227) (mouse) (UniProt Q5Y4Y6)
T2 sequence: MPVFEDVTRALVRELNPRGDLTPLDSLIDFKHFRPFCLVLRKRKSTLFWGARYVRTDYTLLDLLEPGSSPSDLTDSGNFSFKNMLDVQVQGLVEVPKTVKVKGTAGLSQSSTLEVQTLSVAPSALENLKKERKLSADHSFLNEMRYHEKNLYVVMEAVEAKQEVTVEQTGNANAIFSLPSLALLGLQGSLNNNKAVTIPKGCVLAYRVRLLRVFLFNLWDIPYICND

T3: Gasdermin A3, wild type, full length (mouse) (UniProt Q5Y4Y6)
T3 sequence: T1 sequence with T348A

B1: Gasdermin A3, wild type, full length (protein, UniProt Q5Y4Y6 1-464)
chain: T1 sequence with T348A
B2: N-terminal portion of Gsdma3 (A.A. 1-227) (domain or fragment, UniProt Q5Y4Y6 1-227)
chain: T2 sequence
B3: TNF receptor-associated protein 1 (protein, UniProt Q12931 60-704)
chain: STQTAEDKEEPLHSIISSTESVQGSTSKHEFQAETKKLLDIVARSLYSEKEVFIRELISNASDALEKLRHKLVSDGQALPEMEIHLQTNAEKGTITIQDTGIGMTQEELVSNLGTIARSGSKAFLDALQNQAEASSKIIGQFGVGFYSAFMVADRVEVYSRSAAPGSLGYQWLSDGSGVFEIAEASGVRTGTKIIIHLKSDCKEFSSEARVRDVVTKYSNFVSFPLYLNGRRMNTLQAIWMMDPKDVREWQHEEFYRYVAQAHDKPRYTLHYKTDAPLNIRSIFYVPDMKPSMFDVSRELGSSVALYSRKVLIQTKATDILPKWLRFIRGVVDSEDIPLNLSRELLQESALIRKLRDVLQQRLIKFFIDQSKKDAEKYAKFFEDYGLFMREGIVTATEQEVKEDIAKLLRYESSALPSGQLTSLSEYASRMRAGTRNIYYLCAPNRHLAEHSPYYEAMKKKDTEVLFCFEQFDELTLLHLREFDKKKLISVETDIVVDHYKEEKFEDRSPAAECLSEKETEELMAWMRNVLGSRVTNVKVTLRLDTHPAMVTVLEMGAARHFLRMQQLAKTQEERAQLLQPTLEINPRHALIKKLNQLRASEPGLAQLLVDQIYENAMIAAGLVDDPRAMVGRLNELLVKALERH
B4: Gasdermin A3 Rim3-type mutant (A348T), full length (protein, UniProt Q5Y4Y6 1-464)
chain: T1 sequence
B5: Tom70 (translocase of outer mitochondrial membrane 70) (receptor, UniProt O94826 1-608)
chain: MAASKPVEAAVVAAAVPSSGSGVGGGGTAGPGTGGLPRWQLALAVGAPLLLGAGAIYLWSRQQRRREARGRGDASGLKRNSERKTPEGRASPAPGSGHPEGPGAHLDMNSLDRAQAAKNKGNKYFKAGKYEQAIQCYTEAISLCPTEKNVDLSTFYQNRAAAFEQLQKWKEVAQDCTKAVELNPKYVKALFRRAKAHEKLDNKKECLEDVTAVCILEGFQNQQSMLLADKVLKLLGKEKAKEKYKNREPLMPSPQFIKSYFSSFTDDIISQPMLKGEKSDEDKDKEGEALEVKENSGYLKAKQYMEEENYDKIISECSKEIDAEGKYMAEALLLRATFYLLIGNANAAKPDLDKVISLKEANVKLRANALIKRGSMYMQQQQPLLSTQDFNMAADIDPQNADVYHHRGQLKILLDQVEEAVADFDECIRLRPESALAQAQKCFALYRQAYTGNNSSQIQAAMKGFEEVIKKFPRCAEGYALYAQALTDQQQFGKADEMYDKCIDLEPDNATTYVHKGLLQLQWKQDLDRGLELISKAIEIDNKCDFAYETMGTIEVQRGNMEKAIDMFNKAINLAKSEMEMAHLYSLCDAAHAQTEVAKKYGLKPPTL
B6: C-terminal portion of Gsdma3 (A.A. 229-464) (domain or fragment, UniProt Q5Y4Y6 229-464)
chain: MQTFPKIRRVPCSAFISPTQMISEEPEEEKLIGEMHEDFKTLKEEVQRETQEVEKLSPVGRSSLLTSLSHLLGKKKELQDLEQKLEGALDKGQKVTLEALPKDVLLSKDAMDAILYFLGALTELTEEQLKILVKSLEKKILPVQLKLVESTLEQNFLQDKEGVFPLQPDLLSSLGEEELTLTEALVGLSGLEVQRSGPQYAWDPDTRHNLCALYAGLSLLHLLSRKSNALTYCALS
B7: C-terminal portion of Gsdma3^Rim3 (A.A. 229-464, A348T) (domain or fragment, UniProt Q5Y4Y6 229-464)
chain: B6 chain with A120T

Legend:
[1] = biological target: T1, Gasdermin A3 Rim3-type mutant (A348T), full length (mouse); test: co-IP; HEK293T cells transfected with Gsdma3 constructs; co-immunoprecipitation with endogenous chaperones or Tom70, in part reciprocal; in part in the absence or presence of 750 nM radicicol; in part with co-expressed C-Gsdma3
[2] = biological target: T2, N-terminal portion of Gsdma3 (A.A. 1-227) (mouse); test: as above
[3] = biological target: T3, Gasdermin A3, wild type, full length (mouse); test: co-IP; HEK293T cells co-transfected with differently tagged Gsdma3 constructs; whole cell lysates split in half, immunoprecipitated and immunoblotted with tag antibodies (V5, myc, flag)
[4] = biological target: Hsp90β (human (endogenous in HEK293T)) (UniProt P08238); test: co-IP; HEK293T cells transfected with Gsdma3 constructs; co-immunoprecipitation with endogenous chaperones or Tom70, in part reciprocal; in part in the absence or presence of 750 nM radicicol; in part with co-expressed C-Gsdma3
[5] = biological target: T2, N-terminal portion of Gsdma3 (A.A. 1-227) (mouse); test: co-IP; HEK293T cells co-transfected with differently tagged Gsdma3 constructs; whole cell lysates split in half, immunoprecipitated and immunoblotted with tag antibodies (V5, myc, flag)

Molecule | binding [2] | binding [3] | binding [5] | further results
Hsp70 1A (from UniProt P0DMV8 1-641) | binds | – | – | binding [1]: binds
Hsp90β (from UniProt P08238 1-724) | binds | – | – | binding [1]: binds
Stress-induced-phosphoprotein 1 (from UniProt P31948 1-543) | binds | – | – | –
B1 | – | binds | – | –
B2 | – | binds | binds | binding [4]: binds
B3 | binds | – | – | –
B4 | – | binds | – | –
B5 | binds | – | – | –
B6 | – | no binding | binds | –
B7 | – | – | no binding | –
